Measurements reported in the RNAGym collection of RNA variant scans (doi:10.7554/elife.90254).
Read counts are not given, so values of variants with three or more changes are uncertain.

B1: OR4K15 (parent)
chain: GUUAACGGUCAUAGGCCAUGGAAACUAGGAGCACCAUUUCGCUGCCAGUGAAGAAAUGAACAAAGAAAAUCUGGGCCAGGCAGGCAUCAAAAGAAAUAGUCUUGCGCUCAACCAGAAAGUCUGUAAUCAUUUUAAGGGUA

Variants of: B1
Experiment: self-cleavage, relative activity (ratio to wild type); higher = more cleavage; in vitro, sequencing; the parent is a self-cleaving ribozyme

| Variant | self-cleavage |
| --- | --- |
| A82U C105U A135U | 0.02 |
| U2C U70C A94G | 0.25 |
| A30U C46A A59G A67G U130C | 1.11 |
| A23G A66G U70G A90U A92G U97C | 0.67 |
| A51G A90G U102A U124C A125G | 0.15 |
| A27G U37C U38C U97C | 0.85 |
| U37C A67G A82U | 0.28 |
| A47U U49A A69G U87A | 1.03 |
| A13G A23G A55G A56G A78U A95G U122C | 0.31 |
| C6U A52U A62U A95G U102C | 1.24 |
| A5U U49C G79U G106A | 0.03 |
| G1U U19C A22G A62G A91G U103C | 0.27 |
| A18G U37C U131C | 0.79 |
| A22G A63U A89U A129G | 0.74 |
| A51G A54G A56G A82G | 0.29 |
| A11G U39C G44C A60G A67G G93A | 0.8 |
| G20A A82U U122C A134G | 0 |
| A11U A18U A22G U43C | 1 |
| U38C U49A A89G | 1.5 |
| G48A G53U A82G A116G | 0.2 |
| U57C A117G U122G U130C | 1.3 |

| Variant | self-cleavage |
| --- | --- |
| C88U A117G U124A | 1.05 |
| A4G A5G U19C A22U A90G | 1.22 |
| A30G A51G A86G A126G | 0.98 |
| A91G A126G A129G | 0.66 |
| A13U A27C U70C A92U U127C U133C | 0.4 |
| U9C U49C U72C A94G | 0.34 |
| U43C A54G A78U | 0.15 |
| A63G A67G U132A | 1.56 |
| A33U U72A A116U | 0.08 |
| U97C U122C U124G A129G | 0.67 |
| A13G A52G U103G | 0.17 |
| A47U A54G A68G A78G U102C A117G | 0.23 |
| U2A G41U A118G | 0.63 |
| A11C A90G U103A | 0.1 |
| G20A U38A A91G | 1.8 |
| A54G A69G U102C U139C | 1.89 |
| U37C A54G U100C | 2.25 |
| C85U U100C U132G | 1.88 |
| A23G A30C U49C | 0.3 |
| A92G A118G U122C U133A | 0.79 |
| U26C A60G A92U | 1.89 |

| Variant | self-cleavage |
| --- | --- |
| U37C U38C U49G | 0.86 |
| A13C A64G A86G A117G | 1.02 |
| A95G A114G U130C | 0.42 |
| A23G A67G G123A A126G | 1.02 |
| U43A A52G A110U A116U | 0.12 |
| A4G U9A A33G U39A A55G A89G | 1.18 |
| U57C C88U A110U | 0.43 |
| A22G C40U A51C A56G G65A A68G A86G U103C C113A | 0.09 |
| A18G A22G U57C A60G A68G A95G C128U A135G | 0.74 |
| U97C U120C U122A U124A A126G | 0.39 |
| U12C G14U A24G A69G | 0.7 |
| A33U U108C U132C | 0 |
| A22G A78U A91U U131C | 0.2 |
| A56U U57G A66G U102C A114G A117G | 0.28 |
| U43C A66G U102A | 0.98 |
| U2C A51G A92G | 0.83 |
| A23U U57C A92G | 0.86 |
| U37C A69G A78G A117G U131C | 0.16 |
| U2C A55G A69G U108C | 0.05 |
| A68G A96G A116G | 0.95 |
| G41A A47G A59G | 0.8 |

| Variant | self-cleavage |
| --- | --- |
| A91G A116G U139G | 0.6 |
| A55G A69G A91G U97A | 1.03 |
| U3C A11G A54G | 0.64 |
| A92G G106C U127C | 0.01 |
| A5G U57G U108C | 0.01 |
| U3A G58A A67G | 0.8 |
| U2C C32U A91G A117U U122A | 0.67 |
| G29A A68G A116G U132A | 0.3 |
| U2C A11G A129G | 0.14 |
| A78G A117G U132C | 0.19 |
| A5G U12A U130C | 0.44 |
| A4G A59G A92G A94U U120C | 0.41 |
| A18G U43A A64G G83A | 1.78 |
| A4G A51G A86G A91G A118G U139C | 0.1 |
| U19C U37C A51G U127C G137C | 0.56 |
| A5G A55G U72C G75C | 0.27 |
| A54U U70A U108G | 0.04 |
| U39C U57C A60G U130C | 1.38 |
| C16G A18G U49C A62U A82U | 0.08 |
| U39C C42U A59G A67U A86G | 0.76 |
| A52U U57C C105U U122C | 0.07 |
